Data: PubChem BioAssay AID2100 (National Center for Advancing Translational Sciences (NCATS), 2009)
Values joined by “and” are separate entries in the source; they are usually repeats but may differ in a detail not shown here. Equal entries are not always repeated. In all, about 300,000 compounds went through this assay and about 1,200 (0.4%) were called active. The inconclusive results got no clear call from the source; some entries with a clear call stand among them for comparison. The call rests on the fitted dose curve; in most records, active means well fitted inhibition curve with a large enough effect; inconclusive means small, poorly fitted or top-dose-only effect, or another doubt; inactive means no such curve, though single readings can be large or run the other way. Where the call is inconclusive, the potency comes from a doubtful curve fit.

Biological target: Lysosomal alpha-glucosidase (Homo sapiens) (UniProt P10253)
Test: qHTS Assay for Inhibitors and Activators of Human alpha-Glucosidase Cleavage of Glycogen
Settings: recombinant GAA, glycogen substrate, Amplex Red glucose oxidase fluorescence; series mostly up to 76.4 µM
Procedure, shortened: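 qHTS, 1536-well; enzyme 4 nM final; cpd up to 77 uM; substrate bovine liver glycogen 30 ug; 50 mM citrate/phosphate pH 5.0, 0.01% Tween-20; 37 C, 40 min; Amplex Red detection 45 min RT; Hill fit → AC50.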
Potency means the concentration at half of the fitted maximal effect.

Compound | Potency
COc1ccc2c(c1OC)C(=O)OC2CC(=O)c1ccc(O)c(O)c1 (configuration not stated) | active: 14 µM
C/C(=N\NC(=O)c1cc(Br)ccc1O)c1cccs1 | inconclusive: 24.9 µM [inhibitor, partial curve]
CC1CCN(CC(=O)Nc2ccc(N3CCCCCC3)cc2)CC1 | inconclusive: 14 µM [inhibitor, partial curve]
O=C(O)COc1ccccc1/C=N/NC(=O)Cc1csc(Nc2cccc(C(F)(F)F)c2)n1 | inconclusive: 39.8 µM [inhibitor, single point]
Cc1ccc(NC(=O)CSC2=Nc3ccccc3C3CC=NN23)c(C)c1 (configuration not stated) | inconclusive: 39.5 µM [activator, single point]
Oc1ccc(Nc2nc3ccccc3nc2Nc2ccc(O)cc2)cc1 | active: 19.8 µM
CC(C)=C1C(=O)NN(c2cccc(Cl)c2)C1=O | inconclusive: 24.9 µM [inhibitor, single point]
COc1ccc(-c2cn(-c3ccc(C)c(C)c3)c(=S)[nH]2)cc1OC | inconclusive: 24.9 µM [inhibitor, single point]
CCn1c2ccccc2c2cc(CN3CCN(Cc4cc(OC)ccc4O)CC3)ccc21 | active: 7.88 µM
COc1ccc(Cl)cc1Nc1nc(C)cc(C)c1C(N)=O | inconclusive: 25.1 µM [inhibitor, single point]
CC1(C)O[C@H]2[C@@H](O1)[C@@H](C(=O)Nc1ccc(F)c(F)c1)O[C@@H]1OC(C)(C)O[C@@H]12 | inactive
COc1ccc(CCN2C(=O)C3C4C=CC(C5CC45)C3C2=O)cc1OC (configuration not stated) | inconclusive: 8.84 µM [inhibitor, single point]
CCc1ccc(NC(=O)Nc2cccs2)cc1 | inconclusive: 19.8 µM [inhibitor, partial curve]
CCOc1cc(C(c2c(C)[nH][nH]c2=O)c2c(C)[nH][nH]c2=O)ccc1OCc1ccc([N+](=O)[O-])cc1 | inconclusive: 35.5 µM [inhibitor, single point]
O=C(O)c1cc(N/N=C/C=C/c2ccccc2[N+](=O)[O-])ccc1Cl | inconclusive: 39.8 µM [inhibitor, single point]
COc1ccc(N=C2NN=C(c3c(C)[nH]c4ccccc34)CS2)cc1 | inconclusive: 31.6 µM [inhibitor, single point]
CCCCC(=Nc1ccc(N)cc1)C1=C(O)C(C(=O)OC)C(C)(C)CC1=O (configuration not stated) | inactive
COc1ccc(Cc2nnc(NC(=O)Cc3cccs3)s2)cc1 | inconclusive: 63.1 µM [activator, partial curve, poor fit]
CCCc1ccc(C(=O)NNc2cc(Cl)ccc2Cl)cc1 | inconclusive: 10 µM [inhibitor, partial curve]
COC(=O)c1cnc(NNS(=O)(=O)c2ccc(Cl)cc2)nc1C(F)(F)F | inconclusive: 31.4 µM [inhibitor, single point]
COc1ccc(CNC(=O)C/C(C)=N/NC(=O)c2cnccn2)cc1 | inconclusive: 8.84 µM [inhibitor, partial curve]

Compound | Potency
COc1cccc(C(c2c(C)[nH]n(-c3ccccc3)c2=O)c2c(C)[nH]n(-c3ccccc3)c2=O)c1OC | inconclusive: 24.9 µM [inhibitor, partial curve]
O=C(NNc1cc(Cl)cc(Cl)c1)C1CCC1 | inconclusive: 50.1 µM [inhibitor, single point]
N#Cc1c(N(CCO)CCO)nc(N)c2c(N)nc3c(c12)CC(=O)N3CC1CCCO1 (configuration not stated) | inconclusive: 35.5 µM [activator, single point]
C(=N\Nc1nc(-c2ccccc2)cs1)/c1cccnc1 | inconclusive: 39.8 µM [inhibitor, single point]
Cc1nc(Cl)cc(N/N=C/c2ccc(O)cc2O)n1 | inconclusive: 15.8 µM [inhibitor, partial curve]
COc1cc(CC2COC(c3ccc(O)c(OC)c3)C2COC(C)=O)ccc1O (configuration not stated) | inconclusive: 17.8 µM [inhibitor, partial curve]
COc1ccc(/C=C(\CC(=O)O)c2nc3ccccc3s2)cc1O | inconclusive: 17.6 µM [inhibitor, partial curve]
O=C(O)c1ccccc1N/N=C/c1c(Sc2nnnn2-c2ccccc2)nc2ccccn2c1=O | inconclusive: 3.55 µM [inhibitor, full curve]
CC(C)=CCCC1(C)C=Cc2c(c(C)cc3c2[nH]c2cc(O)ccc23)O1 (configuration not stated) | inconclusive: 44.7 µM [inhibitor, partial curve]
COc1ccc(-c2nc3ccccn3c2/N=C/c2ccc(OC)c(OC)c2)cc1O | inconclusive: 35.5 µM [inhibitor, single point]
COc1ccc(NC(=O)CN(C)S(=O)(=O)c2cccc3cccnc23)cc1 | inconclusive: 5.01 µM [inhibitor, full curve, poor fit]
N#C/C(=C/c1ccc(F)cc1)C(N)=S | active: 35.5 µM
Cc1cc(C)n2c(Nc3cccc(C(F)(F)F)c3)c(-c3ccsc3)nc2n1 | inconclusive: 8.91 µM [inhibitor, full curve]
COc1ccc2nc3cc(Cl)ccc3c(Nc3cc(CN4CCCC4)c(O)c(CN4CCCC4)c3)c2n1 | inconclusive: 31.6 µM [inhibitor, single point]
Cc1ccc2[nH]c(=O)c(C(c3nnnn3Cc3ccccc3)N3CCc4ccccc43)cc2c1 (configuration not stated) | inactive
CN=c1scc(-c2cccs2)n1/N=C/c1ccc(O)c(O)c1O | inconclusive: 8.84 µM [inhibitor, full curve]
CCc1ccc(CCC(=O)Nc2ncc(Cc3ccccc3Cl)s2)o1 | inactive
COc1cc(/C=C2\N=C3CCCCCN3C2=O)ccc1O | inactive
CC1=C(C(N)=O)C(c2ccccc2F)NC(=O)N1 (configuration not stated) | inconclusive: 3.52 µM [inhibitor, single point]
Cc1nn(CCC(=O)NNC(=S)Nc2ccc(Cl)cc2)c(C)c1[N+](=O)[O-] | inconclusive: 25.1 µM [inhibitor, single point]
Fc1ccc(Nc2c(-c3ccco3)nc3ccccn23)cc1 | inconclusive: 12.6 µM [inhibitor, partial curve] and inconclusive: 3.16 µM [inhibitor, full curve]
